Reference: PubChem BioAssay AID485344 (National Center for Advancing Translational Sciences (NCATS), 2010)
The whole screen tested about 340,000 compounds, of which about 6,900 (2%) were called active. Rule as the data show it: active = inhibition above about 30%; inactive = below that, where a call was filed. This is a selection; strong and weak results do not stand in their true shares. Where no call is shown, the source filed none.

biological target: D(2) dopamine receptor (Homo sapiens) (UniProt P14416); test: HTS Assay for Allosteric Antagonists of the Human D2 Dopamine Receptor: Primary Screen for Antagonists; conditions: HEK293 TREx D2 cells, calcium flux, dopamine EC80; at 10 µM; stronger effect = higher value; also: 0% is about no effect
Chain of UniProt P14416 (P14416 whole entry, looked up): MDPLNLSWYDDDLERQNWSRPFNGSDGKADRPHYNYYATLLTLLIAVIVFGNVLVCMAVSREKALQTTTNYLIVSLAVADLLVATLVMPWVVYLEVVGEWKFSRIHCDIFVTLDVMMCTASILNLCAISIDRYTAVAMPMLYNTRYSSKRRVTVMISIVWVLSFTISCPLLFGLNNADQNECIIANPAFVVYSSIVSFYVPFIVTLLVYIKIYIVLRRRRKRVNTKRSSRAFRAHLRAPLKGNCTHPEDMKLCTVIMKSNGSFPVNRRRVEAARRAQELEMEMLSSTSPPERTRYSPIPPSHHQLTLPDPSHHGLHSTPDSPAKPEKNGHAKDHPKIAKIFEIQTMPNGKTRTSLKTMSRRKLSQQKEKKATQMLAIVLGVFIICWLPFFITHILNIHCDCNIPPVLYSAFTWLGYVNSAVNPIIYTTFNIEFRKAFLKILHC
Procedure, shortened: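 Read-out: kinetic calcium fluorescence (1 cycle/s) in inducible HEK293 T-REx D2 cells after an EC80 dopamine addition that followed 180 s compound preincubation. Loss of the dopamine response indicates antagonism.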

| SMILES | inhibition |
| --- | --- |
| CCOc1cc(C(=O)NCc2ccc3c(c2)CCN3C(=O)CC)cc(OCC)c1OCC | 8.73% |
| CCCCN(CC)CCCNC(=O)c1cn(C)c2ccc(S(=O)(=O)N(C)C3CCCCC3)cc2c1=O | -4.14% |
| COc1cccc(CNC(=O)CCC(=O)N2CC3CCCN3c3ccccc32)c1 (centres undefined) | 19.4% |
| Cc1ccccc1NC(=O)CN(C)S(=O)(=O)c1cccc2nsnc12 | 2.24% |
| Clc1ccc(-c2c[n+](Cc3ccc(Cl)c(Cl)c3)c3n2CCC3)cc1 | active: 40.9% |
| Cc1cccc(NC(=O)Cn2nc(N3CCN(c4ccccc4)CC3)ccc2=O)c1C | -0.659% |
| CCOC(=O)c1cnn(-c2cccc(F)c2)c1C1CCNCC1 | 28.3% |
| CCOc1ccc(CCNC(=O)Cn2nc(C)c3c(C)n(-c4ccccc4)nc3c2=O)cc1OCC | -1.62% |
| Cc1ccc(S(=O)(=O)Nc2cc(Cl)c3oc4c(c3c2)C(=O)CC(C)(C)C4)cc1 | 19.2% |
| COc1ccccc1CNc1nc(-c2ccco2)nn1S(=O)(=O)c1ccc(Cl)cc1 | -7.11% |
| COc1cc(C(=O)Nc2ccc(-c3cc(C(F)(F)F)nn3-c3ccccc3)cc2)cc(OC)c1OC | -9.73% |
| COc1cc(OC)c(NC(=O)Cn2c(=O)cc(C(F)(F)F)c3c(C)nn(C)c32)cc1Cl | -3.85% |
| Cc1ccccc1NC(=O)CSc1nc2ccc(NC(=O)COc3ccccc3F)cc2s1 | 1.42% |
| CCc1ccccc1NC(=O)c1cnn2c(C(F)(F)F)cc(-c3ccc(OC)c(OC)c3)nc12 | 6.28% |
| Cc1ccc(CNC(=O)c2cc(C3CC3)nc3c2c(C)nn3-c2cccc(Cl)c2C)cc1 | -0.506% |
| O=C(COC(=O)CCN1C(=O)C2CC=CCC2C1=O)NCCc1ccc(F)cc1 (centres undefined) | active: 37.1% |
| Cc1ccc(N2C(=O)c3oc4cc(C)c(C)cc4c(=O)c3C2c2cccc(O)c2)nc1 (centres undefined) | -5.76% |
| Cc1ccc(NC(=O)c2nc(S(=O)(=O)Cc3cccc(C)c3)ncc2Cl)cc1 | -5.47% |
| CCN(C(=O)Cn1c(SCC(=O)NCc2ccccc2)nc2ccccc21)c1cccc(C)c1 | -20.6% |
| O=C(NCc1ccccc1Cl)c1cnc(N2CCCCC2)c2ccccc12 | -12% |
| Cc1cccn2c(Nc3ccc4c(c3)OCCO4)c(-c3ccc(Br)o3)nc12 | 4.76% |
| O=C(Nc1cccc(Cl)c1Cl)c1cc2nc(-c3ccc4c(c3)OCO4)cc(C(F)(F)F)n2n1 | -15.6% |
| COc1ccc(-c2cc3ccc(O)c(CN4CCN(CCO)CC4)c3oc2=O)cc1OC | 7.21% |
| Cc1ccc(-n2nc(C(=O)NCCc3cccc(C)c3)c3c4ccccc4n(C)c3c2=O)cc1 | -1.2% |

| SMILES | inhibition |
| --- | --- |
| COc1ccc(OC)c(CNC(=O)c2cc(-c3ccc(Cl)s3)nc3ccccc23)c1 | 5.42% |
| COc1cc(-c2nc3n(n2)C(c2ccc(F)cc2)C(C(N)=O)=C(C)N3)cc(OC)c1OC (centres undefined) | -8.97% |
| COc1ccccc1NC(=O)c1oc2ccccc2c1NC(=O)c1ccc(S(=O)(=O)N(C)C)cc1 | -11.3% |
| CCOC(=O)c1cc(S(=O)(=O)Nc2ccc(OC(F)(F)F)cc2)[nH]n1 | 3.3% |
| CCC1CN(C(=O)N2CCC(C(=O)NCc3cc(OC)ccc3OC)CC2)c2ccccc2O1 (centres undefined) | -10.2% |
| Cn1c(C(=O)NCc2ccc(F)cc2)cc2cc(S(=O)(=O)N3CCCCC3)ccc21 | -13.6% |
| COc1ccc(NC(=O)CSc2nc(-c3ccc(OC)cc3)cc(=O)[nH]2)cc1 | -4.91% |
| COc1cc(OC)c(NC(=O)c2cc3c(s2)-c2ccc(Cl)cc2SC3)cc1Cl | 4.6% |
| Cc1cccc(N2CCN(C(=O)C3CCN(Cc4nc(-c5ccc(Cl)cc5)oc4C)CC3)CC2)c1C | 8.13% |
| Cc1cc(NC(=O)C2CCC(CNS(=O)(=O)c3ccc(Br)s3)CC2)ccc1Br (centres undefined) | 12.1% |
| COc1ccc(C)cc1S(=O)(=O)Nc1cccc(-c2ccc(N3CCC(C)CC3)nn2)c1 | -11.5% |
| CCc1nn2c(-c3ccco3)ccnc2c1-c1ccccc1 | 13.8% |
| Nc1c(C(=O)NCc2ccc3c(c2)OCO3)nnn1CC(=O)Nc1ccc(Br)cc1 | -6.17% |
| Cc1cccc(C)c1OCC(=O)N1CCC(c2nc3ccccc3o2)CC1 | 6.21% |
| COc1ccc(NC(=O)CN(C)S(=O)(=O)c2ccc(C(=O)N3CCOCC3)s2)cc1 | -17.1% |
| O=C(CN1CCN(c2ccc(O)cc2)CC1)Nc1cc(S(=O)(=O)N2CCCC2)ccc1Cl | active: 43.9% |
| CC(=O)N1CCCc2cc(S(=O)(=O)N3CCCC(C(=O)NCc4ccccc4)C3)ccc21 (centres undefined) | 1.67% |
| Cc1cccc(NC(=O)CSc2cn(CC(=O)N3CCCC3)c3ccccc23)c1C | 1.16% |
| CCc1ccc(-c2cc(C)no2)cc1S(=O)(=O)Nc1ccc(Cl)cn1 | 0.415% |
| Cc1ccc(Cn2cc(C(=O)c3ccc(C)cc3)c(=O)c3ccc(C)nc32)cc1 | -0.295% |
| CCOc1ccc(NC(=O)Cn2cc(C(=O)c3ccc(OCC)cc3)c(=O)c3cc4c(cc32)OCCO4)cc1 | -2.24% |
| COc1ccc(NC(=O)N(C(C)C)C2CCN(C(C)=O)CC2)c(OC)c1 | 3.19% |
| Cc1ccc(CCNC(=O)c2cc3cc4cc(C)ccc4nc3s2)cc1 | -13% |
| COc1cccc(N2CCN(C3OC(=O)c4ccccc43)CC2)c1 (centres undefined) | active: 30.5% |

| SMILES | inhibition |
| --- | --- |
| COc1ccccc1Cn1c(CNS(=O)(=O)c2ccc(CC(C)C)cc2)nc2cccnc21 | 4.18% |
| CN(C)S(=O)(=O)N1CCC(n2cnc3cccnc32)CC1 | 9.42% |
| O=C1C2=C(Nc3ccccc3SC2c2ccc(Cl)c(Cl)c2)c2ccccc21 (centres undefined) | 17.2% |
| COc1cccc(NC(=O)CN2C(=O)COc3ccc(S(=O)(=O)N4CCCCCC4)cc32)c1 | -5.46% |
| COC(=O)Cc1c(C)c2cc3c(c(C)c2oc1=O)OCN(CCc1ccc(F)cc1)C3 | 4.63% |
| CCc1ccc(NC(=O)CC2C(=O)N(c3ccc(C)cc3)C(=O)N2CCc2ccncc2)cc1 (centres undefined) | -2.2% |
| CCOc1ccc(N(CC)S(=O)(=O)N2CCCC(C(=O)Nc3ccc(NC(C)=O)cc3)C2)cc1 (centres undefined) | 25.8% |
| CCOC(=O)c1ccc(NS(=O)(=O)c2cn(C)c(C)n2)cc1 | 6.42% |
| CCS(=O)(=O)c1nc(S(=O)(=O)c2ccc(C)cc2)c(NCc2ccc(Cl)cc2)s1 | -16.4% |
| COc1cccc(C(=O)Nc2cc(-c3ccccc3)nn2-c2ccccc2)c1 | -0.35% |
| CCOc1ccc(-c2c(C)nn3c(-c4ccccc4)c(C(=O)NCCOC)cnc23)cc1OCC | -8.93% |
| O=C(COc1ccc2oc3c(c2c1)CCCC3)Nc1ccc(Cl)cc1 | -9.14% |
| CCOc1ccc(C(=O)Nc2ccc(C(=O)OCc3cc(=O)n4nc(CC)sc4n3)cc2)cc1 | -27.7% |
| COc1ccc(/C=C/C(=O)N2CCC(c3nc4ccccc4o3)CC2)cc1 | 18.5% |
| COc1ccc(NC(=O)CSc2ccc(-c3cccs3)nn2)cc1 | 15.7% |
| N#Cc1nc(COc2ccccc2Cl)oc1NCc1cccnc1 | active: 40.5% |
| COc1ccc(C(=O)Nc2nnc(S(=O)(=O)N3CCN(c4ccc(C)cc4)CC3)s2)cc1 | -10% |
| CC(Oc1ccccc1)C(=O)Nc1nnc(S(=O)(=O)N2CCCCCC2)s1 (centres undefined) | 7.06% |
| Cc1ccccc1C(=O)Nc1cccc(-c2cn3cccnc3n2)c1 | 4.2% |
| Cc1ccc(Oc2nc3c(c(=O)n(Cc4ccccc4Cl)c(=O)n3C)n2C)cc1C | 2.8% |
| COc1cccc(-c2cc(C(=O)Nc3ccc4c(c3)OCO4)no2)c1 | -9.52% |
| COc1ccc(-c2cc3nc(C)c(CCC(=O)Nc4ccc(F)cc4F)c(C)n3n2)c(OC)c1 | -7.23% |
| Cc1sc2nc(CSC(C)C(=O)NC3(C#N)CCCCC3)[nH]c(=O)c2c1C (centres undefined) | active: 38.3% |
| Cc1cc(C)c(Cn2c(=O)n(-c3ccccc3Cl)c(=O)c3c(C)c(C(=O)N(C)C)sc32)c(C)c1 | 4.23% |

| SMILES | inhibition |
| --- | --- |
| CC(=O)c1c(C)oc2ccc(NS(=O)(=O)c3ccc(C(C)C)cc3)cc12 | -4.55% |
| COc1cccc(N2CC(NC(=O)C3CCCCC3)CC2=O)c1 (centres undefined) | 12.1% |
| COc1ccc(N2CCN(C(=O)c3ccc4c(c3)N(Cc3cc(C)ccc3C)C(=O)c3ccccc3S4=O)CC2)cc1 (centres undefined) | 2.13% |
| Cc1ccc(Cl)cc1N1CCN(C(=O)c2cn(CC(C)C)c(=O)c3c2c2ccccc2n3C)CC1 | -23.2% |
| CCOC(=O)c1nc(Nc2ccc(Cl)cc2)c2c(C)noc2n1 | -7.44% |
| O=C(Nc1cc(C(F)(F)F)ccc1Cl)c1ccc2c(c1)CCN2S(=O)(=O)c1ccccc1 | 5.61% |
| CCc1ccc(CNC(=O)C(CC)n2nc(C)c3c(C)n(-c4ccccc4)nc3c2=O)cc1 (centres undefined) | -8.93% |
| Cc1ccc(-c2c(C(=O)N/N=C/c3ccsc3)nnn2-c2nonc2N)cc1 | active: 34.5% |
| CCCNc1ccc(-c2nc(-c3ccco3)no2)cc1[N+](=O)[O-] | 2.96% |
| Cc1cc(S(=O)(=O)n2ccnc2C(C)C)cc([N+](=O)[O-])c1C | 12.2% |
| COc1ccc(CNc2nc(-c3ccco3)nn2C(=O)CC(C)C)cc1 | 1.5% |
| CCOC(=O)c1[nH]c2ccccc2c1NC(=O)c1ccccc1OC | -22.4% |
| COc1ccc(Cc2nnc(C(=O)NCCCN3CCN(c4ccccc4F)CC3)o2)cc1OC | 9.77% |
| CC(C)COc1ccc(Nc2ncnc3ccc(Br)cc23)cc1 | 15.7% |
| O=C(c1cccs1)N1CCN(c2ccccc2)CC1 | active: 31.4% |
| COC(=O)c1sccc1S(=O)(=O)N(CC(=O)NCc1ccc(F)cc1)c1ccc(C)c(C)c1 | 0.387% |
| CNS(=O)(=O)c1cn(CC(=O)Nc2cccc(C(F)(F)F)c2)cc1S(=O)(=O)NC | -1.26% |
| Cc1cccc(NC(=O)NC2COc3ccccc3C2)c1C (centres undefined) | 1.15% |
| CNS(=O)(=O)c1cn(CC(=O)N2CCN(c3ccc(C)cc3C)CC2)cc1S(=O)(=O)NC | -6.05% |
| Cc1ccc(N2C(=O)CS(=O)(=O)C23C(=O)N(Cc2ccccc2F)c2ccccc23)cc1Cl (centres undefined) | -4.68% |
| O=C(COc1ccccc1Cl)Nc1ccccc1OCc1cc(=O)n2ccccc2n1 | -5.02% |
| O=C(CN1C(=O)C2CCCCN2c2ccc(C(=O)N3CCCC3)cc21)NCc1ccccc1F (centres undefined) | 12.3% |
